In PubChem BioAssay AID588795 (National Center for Advancing Translational Sciences (NCATS), 2011):
Among all 390,000 compounds or so, about 1,400 (0.36%) were called active. Inconclusive means that the source gave no clear call. Such entries were picked first, then a sample of the others. Calls come from the whole dose curve; as a rule, active = well fitted inhibition curve with a large enough effect; inconclusive = small, poorly fitted or top-dose-only effect; inactive = no such curve, though single readings can be large or run the other way. A potency beside an inconclusive call is a rough fit, not a confirmed value.

Each molecule was assayed against Flap endonuclease 1 (Homo sapiens) (UniProt P39748) (assay: qHTS Assay for the Inhibitors of Human Flap endonuclease 1 (FEN1).). Details: Recombinant FEN1 flap cleavage, fluorescence, 15 min; series mostly up to 114 µM.
UniProt P39748, sequence (P39748 whole entry, looked up): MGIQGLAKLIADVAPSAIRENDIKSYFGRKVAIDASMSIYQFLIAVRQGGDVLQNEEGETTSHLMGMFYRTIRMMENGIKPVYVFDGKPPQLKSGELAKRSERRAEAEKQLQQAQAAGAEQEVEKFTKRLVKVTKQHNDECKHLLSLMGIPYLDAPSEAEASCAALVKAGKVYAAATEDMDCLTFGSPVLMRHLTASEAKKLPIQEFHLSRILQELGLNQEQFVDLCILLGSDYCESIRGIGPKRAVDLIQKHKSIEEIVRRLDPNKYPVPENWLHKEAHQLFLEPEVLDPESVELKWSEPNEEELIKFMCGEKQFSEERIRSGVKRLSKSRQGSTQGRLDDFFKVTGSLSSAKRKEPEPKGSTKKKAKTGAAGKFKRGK
How it was run: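 Compounds are tested as a concentration series against 10 nM FEN1; after a 15 min room-temperature preincubation, 50 nM substrate starts cleavage, with plate reads at 0 and 15 min. Normalized responses are fitted by a Hill equation.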
Note: nearly all actives have a fitted effect of over 65% in size.
Potency is the fitted concentration of half-maximal effect; tags give direction and shape of the fitted curve.

| Compound | Potency |
| --- | --- |
| Cc1cccc(C2CN(C)CCc3c2cc(O)c(O)c3Cl)c1 (centres undefined) | inconclusive: 37.7 µM [inhibitor, single point] |
| CCCOC(=O)c1cccc(NC(=O)c2c(-c3ccccc3Cl)noc2C)c1 | inconclusive: 56.2 µM [inhibitor, partial curve, poor fit] |
| COc1cc(NC(=O)COC(=O)c2ccc(S(=O)(=O)N3CC(C)CC(C)C3)cc2)c(C)cc1[N+](=O)[O-] (centres undefined) | inconclusive: 100 µM [inhibitor, partial curve, poor fit] |
| CC(Nc1nc(-c2ccc(F)cc2)cs1)c1nc2cc(C(F)(F)F)ccc2n1CCCO (centres undefined) | inconclusive: 56.2 µM [inhibitor, partial curve, poor fit] |
| COc1cc(/C=C/CO)ccc1O[C@@H]1O[C@H](CO)[C@@H](O)[C@H](O)[C@H]1O | inconclusive: 3.98 µM [inhibitor, partial curve, poor fit] |
| Cc1cc(C)n(-c2cc(N3CCOCC3)nc(-c3ccccc3)n2)n1 | inconclusive: 89.1 µM [inhibitor, single point] |
| COC(=O)/C(=N/Nc1ccccc1C)Sc1nnc(C(O)c2ccccc2)n1-c1ccccc1 (centres undefined) | inactive |
| COc1cc2c(NC3CCN(C)CC3)nc(N3CCCCC3)nc2cc1OCCCN(C)C | active: 25.1 µM |
| O=C(Nc1ccccc1F)c1ccc(Cn2nc(N3CCN(c4ccccc4)CC3)ccc2=O)o1 | inactive |
| O=[N+]([O-])c1ccc(/C=N/Nc2nc(N3CCCC3)nc(N3CCCC3)n2)o1 | inconclusive: 44.7 µM [inhibitor, partial curve] |
| COc1ccc(-[n+]2c(C)cc(/C=C3\Sc4ccccc4N3C)cc2C)cc1 | active: 22.4 µM |
| COc1cccc(C2c3[nH]c4ccccc4c3CCN2CCCn2cccn2)c1 (centres undefined) | inconclusive: 89.1 µM [inhibitor, partial curve, poor fit] |
| Cc1cccc(C(=O)Oc2ccc(/C=N/NC(=O)c3cc(O)cc(O)c3)cc2)c1 | inconclusive: 89.1 µM [inhibitor, single point] |
| Oc1ccc(/C=N/Nc2ccnc3cc(Cl)ccc23)c(O)c1O | active: 44.7 µM |
| NS(=O)(=O)c1cccc(NC(=O)CSc2nc3nc(-c4cccs4)cc(C(F)(F)F)c3c(=O)[nH]2)c1 | inconclusive: 50.1 µM [inhibitor, partial curve, poor fit] |
| COc1cc(C2C(C(C)=O)=C(O)C(=O)N2Cc2ccccc2)ccc1O (centres undefined) | inconclusive: 56.2 µM [inhibitor, partial curve, poor fit] |
| O=[N+]([O-])c1ccc2c(c1)N([O-])C1(CCCCC1)[N+]2=O | inconclusive: 56.2 µM [inhibitor, partial curve, poor fit] |
| CCOC(=O)c1c(-c2ccc(Cl)cc2)csc1NC(=O)CNCc1ccco1 | inconclusive: 39.8 µM [inhibitor, partial curve, poor fit] |
| CCc1ccc(C(=O)CSc2nc(N)cc(=O)[nH]2)cc1 | inactive |
| N#C/C(=C\c1ccc(OC(=O)c2ccc(Cl)s2)cc1)c1nc2ccccc2[nH]1 | inconclusive: 79.4 µM [inhibitor, partial curve, poor fit] |
| O=c1ccc(NS(=O)(=O)c2ccccc2Cl)cn1Cc1ccc(Cl)c(Cl)c1 | active: 70.8 µM |
| COc1cc(Cl)c(NC(=O)c2cc3ccccn3n2)c(OC)c1 | inactive |

| Compound | Potency |
| --- | --- |
| COc1ccc(Br)cc1CNC(=O)c1cnc2sc(N3CCC(C)CC3)nn2c1=O | inactive |
| O=[N+]([O-])c1cc(-c2ncccn2)c([N+](=O)[O-])s1 | inactive |
| CCCCC(CCC(=O)O)(C(=O)OCC)c1csc(Nc2ccc(OCC)cc2)n1 (centres undefined) | inconclusive: 17.8 µM [inhibitor, partial curve, poor fit] |
| CC[C@@H]1C(c2ccccc2)=NN(c2ccc(Br)cc2)[C@H]1C(=O)N1CCOC1=O | inconclusive: 50.1 µM [inhibitor, partial curve, poor fit] |
| COc1ccc(C2=NN(c3nc4ccccc4s3)C(=O)/C2=C\N(C)C)cc1 | inactive |
| N#Cc1sc(NCc2cccc(Cl)c2)nc1Cl | inconclusive: 89.1 µM [inhibitor, partial curve, poor fit] |
| CCC(=O)NC(c1ccc(OC)cc1)c1cc(Cl)c2cccnc2c1O (centres undefined) | inconclusive: 44.7 µM [inhibitor, partial curve, poor fit] |
| O=[N+]([O-])c1cc(Cl)cc(/C=N/NC(=S)Nc2ccc(S(=O)(=O)N3CCOCC3)cc2)c1O | inconclusive: 50.1 µM [inhibitor, partial curve, poor fit] |
| O=c1ccc2cc3c(-c4ccccc4)coc3cc2o1 | inconclusive: 44.7 µM [inhibitor, partial curve, poor fit] |
| Oc1c(Br)cc(Br)cc1C=Nc1cccc2ncccc12 | inconclusive: 89.1 µM [inhibitor, single point] |
| O=C1c2ccccc2-c2cc([N+](=O)[O-])c([N+](=O)[O-])cc21 | inconclusive: 7.94 µM [inhibitor, full curve, poor fit] |
| Cc1noc(C)c1COc1ccccc1C(=O)N(C)Cc1ccc(C(C)(C)C)cc1 | inconclusive: 31.6 µM [inhibitor, partial curve] |
| COCCOc1cc(NCc2ccccc2)c2ncn(C(C)C)c2c1 | inconclusive: 14.1 µM [inhibitor, partial curve, poor fit] |
| COc1cc(OC)cc(-n2c(=O)c3ccccc3n(Cc3ccccc3C#N)c2=O)c1 | inactive |
| N=C(N)c1ccc(OCCCCCOc2ccc(C(=N)N)cc2)cc1 (tested in a mixture with another compound) | inconclusive: 21.2 µM [inhibitor, partial curve, poor fit] |
| CC(=O)Oc1cccc2c1C(=O)C1CC=CC(OC(C)=O)C1C2=O (centres undefined) | inconclusive: 89.1 µM [inhibitor, single point] |
| O=C(O)c1cccc(-n2cccc2/C=C\[N+](=O)[O-])c1 | inconclusive: 79.4 µM [inhibitor, single point] |
| Cn1nc(C(=O)Oc2cc(=O)n(C)c3ccccc23)c2ccccc2c1=O | inconclusive: 22.4 µM [inhibitor, partial curve, poor fit] |
| COCC(=O)Nc1ccc([N+](=O)[O-])cc1OC | inactive |
| Cc1ccc(OCCN2CCN(c3nc(NCc4ccco4)c4ccccc4n3)CC2)cc1 | inconclusive: 89.1 µM [inhibitor, single point] |
| O=C1CCCC(O)=C1Sc1ccccc1C(=O)O | inconclusive: 70.8 µM [inhibitor, partial curve] |
| CCCc1cc(=O)oc2cc(OCC(=O)NCc3cccs3)ccc12 | inactive |

| Compound | Potency |
| --- | --- |
| COc1ccc(OC)c(C(=O)c2ccc([N+](=O)[O-])cc2)c1 | inactive |
| Cc1sc(-n2c(C)cc(/C=C3\SC(=S)NC3=O)c2C)c(C#N)c1C | inconclusive: 79.4 µM [inhibitor, partial curve] |
| COC1=C(Nc2ccc(O)cc2)C(=O)c2ccccc2C1=O | inactive |
| COc1ccc(NC(=O)CCN2C(=O)[C@@H]3[C@H](C2=O)[C@H]2C=C[C@@H]3C2)cc1 | inactive |
| CCOC(=O)N1CCN(C(=O)c2ccc3c(c2)NC(=O)/C(=C\c2ccc(OC)c(OC)c2)S3)CC1 | inconclusive: 20 µM [inhibitor, full curve, poor fit] |
| CCc1ccc(S(=O)(=O)/N=C2\C=C(Nc3ccc(C(=O)O)cc3)C(=O)c3ccccc32)cc1 | inactive |
| O=C(CSc1ccc(-c2nc3ccccc3[nH]2)cn1)Nc1ccc2c(c1)OCCO2 | inactive |
| CCCCCCCC#Cc1ccccc1/C=N/S(=O)c1ccc(C)cc1 (centres undefined) | inconclusive: 89.1 µM [inhibitor, single point] |
| CCCc1cc(=O)oc2cc(OCC(=O)Nc3ccc(S(N)(=O)=O)cc3)ccc12 | inconclusive: 15.8 µM [inhibitor, full curve, poor fit] |
| CCOC(=O)c1c(-c2ccc(C)o2)csc1NC(=O)CN1CCOCC1 | inconclusive: 70.8 µM [inhibitor, partial curve, poor fit] |
| COC(=O)c1ccc2c(c1)C(C)(C)C(/C=C/c1ccccc1O)=[N+]2C | active: 50.1 µM |
| O=C(Nc1ccc(Cl)c(C(F)(F)F)c1)C1CCN(S(=O)(=O)c2cccc3nonc23)CC1 | inconclusive: 79.4 µM [inhibitor, single point] |
| CC(C)(C)c1ccc(C(=O)N2CCC(c3nc4ccccc4o3)CC2)cc1 | inactive |
| CCN1CCc2nc3sc(C(=O)c4ccc(F)cc4)c(N)c3cc2C1 | inconclusive: 39.8 µM [inhibitor, partial curve, poor fit] |
| O=c1cc(-c2ccccc2)oc2ccc(O)cc12 | inconclusive: 70.8 µM [inhibitor, partial curve, poor fit] |
| Cc1cccc(NS(=O)(=O)c2ccc(C3CCCCC3)cc2)c1 | inconclusive: 31.6 µM [inhibitor, partial curve, poor fit] |
| COc1ccc(OCC(=O)NNc2c3ccccc3nc3ccccc23)cc1 | inconclusive: 44.7 µM [inhibitor, partial curve] |
| COc1cccc(NC(=O)CN(C)C(=O)c2cc3c(s2)CCC3)c1 | inactive |
| NC(N)=Nc1nc(-c2ccccc2)c2ccccc2n1 | inconclusive: 39.8 µM [inhibitor, full curve, poor fit] |
| C#CCOCCOCCOCCNc1nc(N2CCN(C(=O)CCCCCCCCCCNC(=O)Cn3cc(CCCCCN)nn3)CC2)nc(N2CCN(C(=O)CCCCCCCCCCNC(=O)Cn3cc(C[C@@H](C)O)nn3)CC2)n1 | active: 79.4 µM |
